Laboratory results: the supplement of paper PMC11417369
± gives the standard deviation of the averaged measurements. The list shows a part of the results.

The sequences below were run on PfAP2-LT AP2 domain (GST-tagged) (assay: gcPBM binding intensity (ln(normalized median fluorescence intensity)); higher = stronger DNA binding).
Outline: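 Using an Agilent 4 × 180k array, primer-extended double-stranded 36-bp intergenic genomic probes and negative controls were exposed for 1 h to GST-fused P. falciparum DNA-binding domains expressed in E. coli. Binding was carried out in 1× PBS with 1% milk, 0.2 mg/ml BSA, 0.5% salmon testes DNA and 0.03% Triton X-100, and protein was detected with Alexa488 anti-GST antibody and a 488 nm scan. Binding intensity is the highest Masliner-normalised natural-log median intensity across replicate spots of either probe orientation.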

Sequence | gcPBM binding intensity (ln)
ATATATTTTATTACCAGTACATATATTAAAATAATA [XGTACX_site8440] | 8.39 ± 0.38
ATTAAAGAGATATATACACACATTATGGGGGAATAA [CACACA_site6226] | 9.12 ± 0.36
ATAGAAATTATAAATAGTACATAATAAAAATGAGCA [XGTACX_site822] | 8.94 ± 0.58
CCTAAATATTTTTTATGTACATATTTATCTAAATTT [XGTACX_site6835] | 8.7 ± 0.54
TGAGGAAACATGAGATGTACATATAAATTTTTTTTT [XGTACX_site2595] | 8.78 ± 0.58
TATTATAAAGAAATTACACACATGCAATGAAAAAAA [CACACA_site1697] | 8.96 ± 0.45
TCGTTTCCTTAAAATTGTACTTTTTTTTTTTTTTTT [XGTACX_site64] | 8.57 ± 0.54
AGAGTATATATATATGCATGCATATCTCATATTTAT [TGCATGCA_site509] | 9.24 ± 0.4
TGTTATTATTTGTACACACACATATAGATCCTTGTT [CACACA_site7667] | 9.54 ± 0.33
TAATGATAAATACATACACACAAAAAATAATATATA [CACACA_site2576] | 9.13 ± 0.47
AAACAAAATGGTAACACACACATATATAAATATGTA [CACACA_site6994] | 9.38 ± 0.47
TAAGAAATAAATAGTACACACATAGACACCCACCCA [CACACA_site8429] | 10.1 ± 0.28
TCATAGTATGGACACACACACACACCCATATATATA [CACACA_site5033] | 10 ± 0.25
TATTATATTAATGATGGTACAGTGTATATATATAAT [XGTACX_site1286] | 8.71 ± 0.43
TTGGGTCAAACATAAACACACACAAAAAGAAAAAAT [CACACA_site8328] | 9.34 ± 0.52
ACATATAATATAAAGTGTACAAGAAAATAAAAATAA [XGTACX_site1273] | 9.09 ± 0.53
TTTCCATATTTTTAAAGTACATATTTCCGTTTCCAC [XGTACX_site7832] | 8.67 ± 0.54
GGGATATTTTAAAGGGTGCATATTATTAAAATAATG | 8.61 ± 0.35
TTATTTGATTACTTGCGTACTTATTTCATATTTTTT [XGTACX_site6648] | 9.14 ± 0.47
ATGAGAAAACATAAAAGTACAAAAAGAAAAAAAAAA [XGTACX_site6020] | 8.84 ± 0.53
TTTATTTTATAATTCACACATATATACCTATTTTAT [CACACA_site5709] | 8.85 ± 0.4
TAAACAGACATATAAACACACATATAAACAGACATA [CACACA_site7214] | 9.31 ± 0.41

Sequence | gcPBM binding intensity (ln)
GTGTGGTGCTCGAGGAGTACAAACAATATGTAATTT [XGTACX_site4160] | 8.99 ± 0.58
AATATAAGTAATTATACACACTTAATATTTATATAC [CACACA_site7334] | 8.82 ± 0.42
TTTTCTTCCTATTATTGTACATATAGTATTCTTTCA [XGTACX_site4428] | 8.87 ± 0.49
TAATAATAAACAACCACACACAAAAAAACAAAAAAA [CACACA_site3269] | 9.4 ± 0.36
ATTTAATTATGTAAGTGTACTTTGGAATATAATATT [XGTACX_site3186] | 8.56 ± 0.38
GTAGCACATATATATTGTACATAATATATACATTAT [XGTACX_site6354] | 8.95 ± 0.3
TTAAAATTCAAAAAAAAAAATCAGAATATCAGAAAA [CACACA_negctrl_site1361] | 8.29 ± 0.43
TATATAACATAATATACACACATTATATGCGTAATT [CACACA_site6098] | 9.03 ± 0.27
GATATATAAATAAATACACACATAAAATAGAAATAT [CACACA_site6881] | 9.19 ± 0.4
ATTAAAGAAATATATACACACATTATGGGGGAATAA [CACACA_site178] | 9.05 ± 0.4
GTTAGGATAGATTAGACATGCACATAAATGCACTTC [TGCATGCA_site561] | 8.75 ± 0.49
TTTTTATAGAATTTAACACACATTTCATATAAAAAA [CACACA_site7453] | 8.29 ± 0.31
TATATGCTATAATATACACACATACCTATATTTATA [CACACA_site6383] | 9.04 ± 0.45
AATTTAAGCAGAACATATATATATATATATATAAAG [CACACA_negctrl_site769] | 9.53 ± 0.27
AATTATTTCTTTTACACATGCAATATTTAATTAAAA [TGCATGCA_site598] | 8.37 ± 0.42
TTTAAATGCTTTTTGTGGTGACTTATCCTTTCATAA [XGTACX_negctrl_site109] | 8.63 ± 0.49
ACATATTAAAATATATGTACATAAAATATGAAAAAA [XGTACX_site5869] | 8.96 ± 0.47
ATATTTATTCCTTTTGGTACACAAAAAAAAAAAAAA [XGTACX_site8126] | 8.33 ± 0.37
GTAATAAATTAAATATGTACATATTAAAATTAAGGA [XGTACX_site2290] | 8.85 ± 0.54
ATTGATACATCCAATACACACTACAGATAATGATGT [CACACA_site5098] | 9.16 ± 0.32
GAATTAATTTTAAAACGTACATGGGTGTATTTACAC [XGTACX_site5939] | 8.71 ± 0.38
TTCTTTTTTGTAATAACACACACACTAACAGAAAAA [CACACA_site8646] | 9.16 ± 0.4
